Numbering of substitutions follows the chain as printed. Names and notes keep the numbering of the source.
B1: D10 E10-hFc (S239C T366Y/Y407T), [G4S]3 linker, MA-PEG4-vc-PAB-EDA-PNU159682 conjugate, #880 (Fc fusion, DAR 2.02)
chain 1: QVQLVESGGGLVQPGGSLRLSCAASGSIFSVNTMGWYRQAPGKQRDLVAVATSGGTIHYADSVKGRFTISRDNAKNTVYLQMNSLKPEDTAVYYCNLVVPYGMIAGDHDYWGQGTKVTVSSGGGGSGGGGSGGGGS[human IgG1 Fc with C220S S239C T366Y (EU numbers) not spelt out]
chain 2: QVQLVESGGGLVQAGGSLRLSCAVSGRALSDYNIGWFRQAPGKEREFVARKTWDGSSTRYDDSVKGRFTVSIEDAKNTAYLQMSSLKTEDTAVYYCAAGRYSRARGWEYDYWGQGTQVTVSSGGGGSGGGGSGGGGS[human IgG1 Fc with C220S S239C Y407T (EU numbers) not spelt out]
modifications: here or on the partner: MA-PEG4-vc-PAB-EDA-PNU159682 on Cys of S239C (EU numbering)
B2: A06 F05-hFc (S239C T366Y/Y407T), [G4S]3 linker, MA-PEG4-vc-PAB-EDA-PNU159682 conjugate, #883 (Fc fusion, DAR 2.03)
chain 1: QVHLVESGGGLVQAGGSLRLSCAASGRTFLSMGWFRQAPGKEREFVAAISWTGGSTGYADSVKGRFTISRESDKETMYLQMNSLKPEDTAVYYCAARGDVYYGGDDATRYKYWGQGTQVTVSSGGGGSGGGGSGGGGS[human IgG1 Fc with C220S S239C T366Y (EU numbers) not spelt out]
chain 2: B1 chain 2 with V24A, L29F, S30G, K51R, E73D, D74N, S84N, A104V
modifications: here or on the partner: MA-PEG4-vc-PAB-EDA-PNU159682 on Cys of S239C (EU numbering)
B3: D10 E06-hFc (S239C T366Y/Y407T), [G4S]3 linker, MA-PEG4-vc-PAB-EDA-PNU159682 conjugate, #881 (Fc fusion, DAR 2.02)
chain 1: B1 chain 1
chain 2: QVHLVESGGGLVQAGGSLRLSCAASRRSFSEYAMGWFRQAPGKEREFVAAIGWSGVIEYADSVKGRFTISRDNAKDTVYLQMNSLKPEDTAVYYCAAGLGIRVVSQTPAYWGQGTQVTVSSGGGGSGGGGSGGGGS[human IgG1 Fc with C220S S239C Y407T (EU numbers) not spelt out]
modifications: here or on the partner: MA-PEG4-vc-PAB-EDA-PNU159682 on Cys of S239C (EU numbering)
B4: D10 F05-hFc (S239C T366Y/Y407T), [G4S]3 linker, MA-PEG4-vc-PAB-EDA-PNU159682 conjugate, #882 (Fc fusion, DAR 1.94)
chain 1: B1 chain 1
chain 2: B1 chain 2 with V24A, L29F, S30G, K51R, E73D, D74N, S84N, A104V
modifications: here or on the partner: MA-PEG4-vc-PAB-EDA-PNU159682 on Cys of S239C (EU numbering)

Target: ALPP/ALPPL2 on ALPP/ALPPL2 positive cancer cells (MKN1, NCI-H1651, NCI-N87, Caov-3, HPAC)
Experiment: cell-based or functional assay

Binder | % viability remaining at 96 h, Caov-3 cells [%] | % viability remaining at 96 h, HPAC cells [%] | % viability remaining at 96 h, MKN1 cells [%] | % viability remaining at 96 h, NCI-H1651 cells [%] | % viability remaining at 96 h, NCI-N87 cells [%] | IC50 at 96 h, cell-killing of Caov-3 cells [nM] | IC50 at 96 h, cell-killing of HPAC cells [nM] | IC50 at 96 h, cell-killing of MKN1 cells [nM] | IC50 at 96 h, cell-killing of NCI-H1651 cells [nM] | IC50 at 96 h, cell-killing of NCI-N87 cells [nM]
B1 | 23 | 4 | 3 | 7 | 13 | 0.26 | 0.48 | 0.29 | 0.18 | 1.5
B2 | 17 | 6 | 4 | 7 | 12 | 0.55 | 0.34 | 0.45 | 0.12 | 1.1
B3 | 18 | 8 | 3 | 7 | 12 | 1.97 | 4.22 | 0.6 | 0.38 | 1.98
B4 | 20 | 4 | 3 | 7 | 12 | 0.28 | 0.63 | 0.3 | 0.21 | 0.88

Reference: patent publication US20260216242A1, “ALPP-SPECIFIC VARIANT ANTIGEN BINDING MOLECULES” (ALMAC DISCOVERY LIMITED, priority 2022, published 2026)
